# From PubChem BioAssay AID588453 (National Center for Advancing Translational Sciences (NCATS), 2011)
# The campaign covered roughly 390,000 compounds. About 4,000 (1%) were called active. This list was built around the results that the source calls inconclusive (neither active nor inactive); the mix of calls is not that of the screen. Calls follow the shape of the dose curve; as a rule, active = well fitted inhibition curve with a large enough effect; inconclusive = small, poorly fitted or top-dose-only effect; inactive = no such curve, though single readings can be large or run the other way. Where the call is inconclusive, the potency comes from a doubtful curve fit.
# Molecular target: Thioredoxin reductase 1, cytoplasmic (Rattus norvegicus) (UniProt O89049)
# Experiment: qHTS Assay for Inhibitors of Mammalian Selenoprotein Thioredoxin Reductase 1 (TrxR1): qHTS; also: nearly all actives have a fitted effect of over 65% in size
# Settings: recombinant rTrxR1, NADPH fluorescence consumption, selenite substrate; series mostly up to 114 µM
# Outline: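 Rat TrxR1 (90 nM in the dispensed reagent) was pre-reduced with 400 uM NADPH for 5 min at room temperature, then incubated with compound for 15 min. After 400 uM selenite was added, NADPH fluorescence (Ex 340/Em 450 nm) was followed for 8 min.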
# Potency is read from the fitted curve at half-maximal effect; tags tell the direction and shape of the fitted curve.
# Chain of UniProt O89049 (O89049 whole entry, looked up): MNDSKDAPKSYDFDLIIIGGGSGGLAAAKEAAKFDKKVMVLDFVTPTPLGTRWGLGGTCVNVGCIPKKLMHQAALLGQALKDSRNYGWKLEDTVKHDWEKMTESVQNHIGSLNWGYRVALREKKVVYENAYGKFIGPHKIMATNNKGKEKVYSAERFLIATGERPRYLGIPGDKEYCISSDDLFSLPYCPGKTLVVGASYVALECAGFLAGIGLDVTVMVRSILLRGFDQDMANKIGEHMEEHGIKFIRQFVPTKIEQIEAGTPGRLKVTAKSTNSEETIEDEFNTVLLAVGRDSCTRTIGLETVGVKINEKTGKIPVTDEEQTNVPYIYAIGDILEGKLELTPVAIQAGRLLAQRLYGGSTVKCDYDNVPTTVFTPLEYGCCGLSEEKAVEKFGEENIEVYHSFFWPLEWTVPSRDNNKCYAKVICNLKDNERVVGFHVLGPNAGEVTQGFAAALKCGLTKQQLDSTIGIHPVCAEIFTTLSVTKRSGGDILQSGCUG
row,Structure (SMILES),Potency
1,COc1ccc(S(=O)(=O)NCCc2sc(C)nc2C)cc1F,inactive
2,O=C(NC(=S)NNC(=O)c1ccco1)c1ccccc1,"inconclusive: 14.1 µM [inhibitor, full curve]"
3,CC(=O)Nc1ccc(Oc2sc(C(=O)c3ccccc3)c(N)c2C#N)cc1,"inconclusive: 3.16 µM [inhibitor, full curve]"
4,CCN1C(=O)c2ccccc2Sc2ccc(NC(=O)COc3ccc(Cl)cc3)cc21,inactive
5,C=CCSC1=C(C#N)C(c2ccccc2Cl)C(C(=O)c2cccs2)C(O)(C(F)(F)F)N1 (stereo not drawn),"inconclusive: 56.2 µM [inhibitor, partial curve, poor fit]"
6,Cc1ccccc1CS(=O)(=O)Cc1ccc(C(=O)NCc2ccccn2)o1,active: 50.1 µM
7,CCOc1ccc(CCN2C(=O)C(=O)N([C@@H](Cc3ccc(O)cc3)CN3CCC[C@@H]3CN3C(=O)C(=O)NC[C@@H]3Cc3ccccc3)C[C@@H]2Cc2ccccc2)cc1,inactive
8,O=S(=O)(C/C(=C/CO)S(=O)(=O)c1ccccc1)c1ccccc1,active: 2.24 µM
9,CCOC(=O)c1c(NC(=O)CCS(=O)(=O)c2ccccc2)sc2c1CC(C)(C)NC2(C)C,"inconclusive: 56.2 µM [inhibitor, partial curve, poor fit]"
10,N#Cc1ccc(-c2cccs2)nc1SCc1c(F)cccc1Cl,inactive
11,Cc1oc(C)c2c(=O)ccc3c(c12)OC(N)=C(C#N)C3c1ccccc1Cl (stereo not drawn),"inconclusive: 25.1 µM [inhibitor, partial curve, poor fit]"
12,CC(C)C(NC(=O)c1ccco1)C(=O)NCC(c1ccco1)N1CCCCC1 (stereo not drawn),"inconclusive: 79.4 µM [inhibitor, partial curve, poor fit]"
13,CCc1nnc(NC(=O)CSc2nnc(CNC(=O)c3ccc(OC)c(OC)c3)o2)s1,inactive
14,COc1ccc(/C=N/c2c(-c3ccco3)nc3ccccn23)cc1OC,"inconclusive: 31.6 µM [inhibitor, partial curve]"
15,CN(CC(=O)NCc1ccco1)S(=O)(=O)c1ccc2c(c1)n(C)c(=O)c(=O)n2C,"inconclusive: 31.6 µM [inhibitor, full curve]"
16,CN(C)CCN(C(=O)CCS(=O)(=O)c1ccccc1)c1nc2c(F)cccc2s1,active: 25.1 µM
17,CC1=C(C(=O)OC2CCCCC2)C(c2ccc(C)o2)C2=C(CC(C)(C)CC2=O)N1 (stereo not drawn),"inconclusive: 79.4 µM [inhibitor, partial curve, poor fit]"
18,COCCN=c1scc(-c2ccco2)n1/N=C/c1ccc(O)c(O)c1O,"inconclusive: 14.1 µM [inhibitor, partial curve]"
